In ChEMBL document CHEMBL4888484, “Replenishing the malaria drug discovery pipeline: Screening and hit evaluation of the MMV Hit Generation Library 1 (HGL1) against asexual blood stage Plasmodium falciparum ,using a nano luciferase reporter read-out” (2022):
Hit rate of the full screen: of about 150,000 compounds, about 540 (0.36%) showed an effect of 50% or more. This is one part of the list.

What follows are compounds tested on Plasmodium falciparum (assay: Primary screen in NF54 nanoGlo assay, in single point, at 2uM, 72h; a lower Z score goes with more inhibition). Settings: timepoint 72 hour.
Format: functional, Erythrocyte

Structure (SMILES)	% Inhibition [%]	Z score
CCCN1CCC[C@H](CNc2ncc(CC)cn2)C1	-12	2.24
O=C(NCc1csc(N2CCOCC2)n1)c1ccc2c(c1)OCO2	-8	1.03
CC1(NC(=O)CC2(CS(C)(=O)=O)CC2)CCCCCC1	-17	1.71
COCCN1CC(=O)N[C@H]2CN(C(=O)c3ccc4c(c3)OCCO4)C[C@@H]2OCc2cccc(c2)Oc2cc(ccc2OC)CCC1=O	3	-0.33
CCOC(=O)N1CCC(NC(=O)c2ccc(-c3cc[nH]n3)cc2)CC1	-7	0.7
COC1(CNCc2cnn3ccccc23)CCOCC1	-6	1.14
O=C(Nc1ccc(Cl)c(Cl)c1)C1=NCCCN1	3	-0.43
OC(CN[C@H]1C[C@H](N2CCOCC2)C12CCC2)c1ccccc1F (stereo partly drawn)	-18	2.4
CC(C)CC(=O)N1CCOC2CCCCC21 (stereo not drawn)	-3	0.38
Cc1ccc(-c2nocc2CCC(=O)NCC2CCCCC2)cc1	1	-0.21
CC[C@@H](CO)NCc1ccc(OC(F)F)c(F)c1	-7	1.23
CC1C(C)S(=O)(=O)CCN1CC(=O)N(C(C)C)C(C)C (stereo not drawn)	-6	0.99
Cc1c(NC(C)C(C)C)cccc1C(=O)NC1CCC(=O)N(C)C1 (stereo not drawn)	-2	0.45
COc1cc(Cl)ccc1C(=O)N1CC2(CN(C)C(=O)O2)C1	1	-0.15
O=C(Cn1cc(Br)c(=O)[nH]c1=O)N1CCN(c2ncccn2)CC1	-6	0.89
CS(=O)(=O)N1CCN(Cn2nnc3ccccc3c2=O)CC1	9	-0.96
c1ccc(-c2nc(C[n+]3ccc4c(c3)CCCC4)cs2)cc1	63	-6.15
COCCNC(=O)N1CCN(c2ncccc2-c2nnc(C(C)C)o2)CC1	-13	1.21
CC1(C)[C@H](CS(=O)(=O)N2CC(CO)C2)C1(F)F	2	-0.32
COc1ccc(NC(=O)Cc2nc(C)c(C(=O)NCc3ccccc3)s2)cc1	-15	2.06
c1cn2c(CN3CCC(OC4CCCCC4)CC3)cnc2cn1	-5	0.67

Structure (SMILES)	% Inhibition [%]	Z score
COc1ccc2c(c1)c(CN1CC[C@H](CO)[C@H](N(C)C)C1)cn2C	-2	0.41
CC(C)NC(=O)Nc1ccc2c(c1)N(C)S(=O)(=O)N2C	-4	0.51
CN(Cc1ccccc1)C(=O)c1nc2ccccc2s1	-10	1.35
CCNC(=O)N[C@H]1[C@H](O)[C@H](O)C[C@@H]1c1ccc(C)cc1	-11	1.64
c1ccc(Cc2nnc([C@H]3CCN(CC4CC4)C3)o2)cc1	-13	2.03
O=C(CCc1ccc(Cl)c(F)c1)N1CC(N2CCc3ccccc3C2)C1	-9	1.44
Cc1oc(-c2ccccc2Cl)nc1CN(C)Cc1cnn(C)c1C	5	-0.63
O=C1[C@@H](N2CCC3(C2)OCCO3)CCN1c1ccc(Cl)c(F)c1	-24	2.43
CCc1cc(C(=O)N2CCN(CC)CC2)c2c(C)nn(-c3ccc(OC)cc3)c2n1	-3	0.4
COc1csc(C(=O)N(C)[C@H]2CCN(CC(F)(F)F)C2=O)c1	-3	0.49
CCS(=O)(=O)N1CCN(c2nc(CN3CCN(Cc4ccccc4)CC3)cc(=O)[nH]2)CC1	-4	0.54
O=C(Nc1ccccc1)N1CCC[C@@H]1Cc1noc(-c2ccccc2)n1	-12	1.78
CCc1onc(C)c1[C@@H]1CCCN1Cc1ccc(C)cc1C	-10	1.34
Cc1ccnc(NC(=O)c2occc2Br)n1	29	-3.26
COc1ccc(-c2noc(-c3ccc(N(C)C[C@H]4CCCN4C)nc3)n2)cc1	2	-0.3
COCCn1c(C)cnc1C[C@H]1CCCN(C(=O)COc2ccccc2)C1	2	-0.3
COc1ccc(N)cc1OCC(F)F	27	-3.03
O=C(c1ccncc1Br)N1CCC[C@H]1CO	-16	2.15
Cn1c(CO)nnc1[C@H]1C[C@H](NS(=O)(=O)c2ccc3c(c2)OCCO3)C1	-12	2.27
O=C1c2ccc(-c3nc4ccccc4o3)cc2C(=O)N1C1CCCCC1	-8	1.12
C[C@H](NC(=O)NC1CCc2c(nnn2C)C1)c1nccs1 (stereo partly drawn)	-1	0.19

Structure (SMILES)	% Inhibition [%]	Z score
Cn1c(Nn2cnnc2)nc2ccccc21	-7	1.06
CC(NC(=O)c1ccc2c(c1)C(=O)N(CC1CCCO1)C2=O)c1ccccc1 (stereo not drawn)	-1	0.12
CCC1=C(c2ccc(C)cc2)S(=O)(=O)N=C1N1CCC(C(=O)Nc2ccccc2F)CC1	-12	1.28
C[C@@H]1CN(CCN(C)C(=O)Nc2nc(C3CC3)cs2)C[C@H](C)O1	34	-0.98
Cc1n[nH]c(C)c1S(=O)(=O)Nc1ccc2nc(N3CCCC3)sc2c1	-17	1.66
CCc1c[nH]c2ncnc(N3CCN([C@H]4CCS(=O)(=O)C4)CC3)c12	1	-0.22
Cc1cc(C)n([C@@H](C)c2nc(-c3ccc(F)c(F)c3)nn2CCO)n1	-1	0.11
Clc1cccc(CN2CCOC[C@H](Oc3cccnc3)C2)c1	-11	1.45
Cc1nnsc1C(=O)NCc1cccc(CN2CCC(C)CC2)c1	8	-1.08
Cc1c(C)n(Cc2ccccc2)c2ncnc(N3CCN(C(=O)CN4CCOCC4)CC3)c12	-22	2.63
COCc1nnc2n1CCN(c1nc(C)c(C#N)cc1Cl)C2	-9	1.3
CCNc1ccnc(N2C[C@H]3CC[C@@H](C2)N(Cc2c(C)noc2C)C3=O)n1	-7	0.68
Cc1ccc(OCC(=O)N(Cc2cccc(Cl)c2)[C@H]2CCS(=O)(=O)C2)cc1C	-6	0.5
Cc1ccc(-c2ccno2)cc1S(=O)(=O)NCc1cc2n(n1)CCNC2	-7	0.97
CC(=O)Nc1nc(CN2CC(N3CCCC3)CC2C(C)C)cs1 (stereo not drawn)	14	-2.73
Cc1ccc(S(=O)(=O)N2C[C@@H](C(N)=O)[C@H](C3CCN(C)CC3)C2)cc1Cl	-14	1.93
COC(=O)CNC1CCCCC1CO (stereo not drawn)	-3	0.34
Cc1ccc(-c2nnc(-c3nn(C)c4c3CN(S(=O)(=O)c3cc(F)ccc3F)CC4)o2)cc1	-25	2.17
N#Cc1ccsc1C(=O)N1CCC2(CCCCC2)C1	34	-3.88
CC(=O)Nc1ccn([C@H](NC(=O)c2ccccc2)C(Cl)(Cl)Cl)c(=O)n1	-8	0.95
Cc1ccnc(N2CCN(c3ccc(N)nc3)CC2)c1C#N	-16	1.66

Structure (SMILES)	% Inhibition [%]	Z score
CC(=O)Nc1cccc(-c2nc3ncncc3[nH]c2=O)c1	6	-0.72
c1ccc(Oc2ccc(CN3CCc4nc[nH]c4C34CCOCC4)nn2)cc1	-6	0.96
CCNc1nc(C(=O)N[C@@H](CC)CC#N)cs1	4	-0.59
Cc1nn(-c2ccccc2)c(Oc2ccc(Cl)cc2)c1CN(C[C@H]1CCCO1)C(=O)C1CCC1	5	-0.66
COCCCNC(=O)[C@]1(C)Cn2nc(-c3ccccc3)cc2C(=O)N1Cc1cccc(OC)c1	-2	0.38
O=C(NC[C@]12CCC[C@H]1C2)c1ccn(CCn2cccn2)n1	-9	1.27
CCC(=O)N1CCN(CC(OC)OC)CC1	-3	0.32
C[C@H]1CCCN(C(=O)NCC(C)(C)C(N)=O)CC1	4	-0.82
Cc1cc(C)c2c(C(=O)N[C@@H](C)Cc3ccncc3)cc(-c3cnn(C)c3)nc2c1	9	-1.1
Cc1ccc(-c2cc(O)cc(CC[C@H]3CCCCN3)c2)c(C)n1	61	-8.76
Cc1ccc(Cl)cc1S(=O)(=O)N1Cc2cncnc2C1	0	-0.04
O=C(COCC(F)(F)F)NC1CCCCC1n1cccn1 (stereo not drawn)	3	-0.42
O=C(Nc1cn[nH]c1)C1CCN(S(=O)(=O)c2ccc3c(c2)CCC3)CC1	5	-0.84
CC(C)(C)CN1C[C@]23C=C[C@H](O2)C(C(=O)N2CCc4n[nH]cc4C2)C3C1=O (stereo partly drawn)	2	-0.29
Cn1cc(CNC(=O)N2CCN3CCOC[C@@H]3C2)c(C(F)(F)F)n1	-18	1.53
Nc1nc(CCCNCc2cnc(N3CCCCC3)nc2)cs1	2	-0.3
CCN1CC(=O)N[C@H]2CN(C(=O)Cc3c(C)noc3C)CC[C@@H]2OCc2cccc(c2)Oc2cccc(c2)CC1=O	-1	0.13
COc1ccc(OC(F)F)c(CN2CCCO[C@@H](CN)C2)c1	-5	0.87
C[C@H](NCc1c2c(nn1C)CCCC2)c1cccc(OC(F)F)c1	5	-0.68
Cn1nc(C(F)(F)F)cc1NC(=O)N1C2CCC1CC1(CC1)C2	5	-0.86
CN(CCCNC(=O)CCCC1CC1)c1ccccn1	-4	0.4
